Data reported in the supplement of paper PMC11741623.
Some of the results follow. Interaction screen of human proteins with wild-type SARS-CoV-2 proteins by split-DHFR complementation in yeast, 1 µg/mL methotrexate. Value = fitness of the pair (three or more lineages) minus that of the viral protein without a human partner, on a scale set by negative (0) and fused positive (1) controls, mean of up to three cultures; higher = more likely to interact. Active = false discovery rate below 0.05 (one-sided t-test) in at least one culture. Nearly all pairs are not hits, and differences among them are mostly noise (correlation between cultures about 0.3); most hits were seen in one culture only. Human sequences are the Swiss-Prot entries looked up by gene name; the clone may be another isoform. NSP2 values were corrected by the authors for a growth advantage. Listed are human proteins with a hit and a random twelfth of the others.

B1: SORD, Q00796 (protein)
chain: MAAAAKPNNLSLVVHGPGDLRLENYPIPEPGPNEVLLRMHSVGICGSDVHYWEYGRIGNFIVKKPMVLGHEASGTVEKVGSSVKHLKPGDRVAIEPGAPRENDEFCKMGRYNLSPSIFFCATPPDDGNLCRFYKHNAAFCYKLPDNVTFEEGALIEPLSVGIHACRRGGVTLGHKVLVCGAGPIGMVTLLVAKAMGAAQVVVTDLSATRLSKAKEIGADLVLQISKESPQEIARKVEGQLGCKPEVTIECTGAEASIQAGIYATRSGGNLVLVGLGSEMTTVPLLHAAIREVDIKGVFRYCNTWPVAISMLASKSVNVKPLVTHRFPLEKALEAFETFKKGLGLKIMLKCDPSDQNP
B2: HESX1, Q9UBX0 (protein)
chain: MSPSLQEGAQLGENKPSTCSFSIERILGLDQKKDCVPLMKPHRPWADTCSSSGKDGNLCLHVPNPPSGISFPSVVDHPMPEERASKYENYFSASERLSLKRELSWYRGRRPRTAFTQNQIEVLENVFRVNCYPGIDIREDLAQKLNLEEDRIQIWFQNRRAKLKRSHRESQFLMAKKNFNTNLLE

The binders below were run against SARS-CoV-2 E (assay: yeast fitness gain over the viral ORF with no human partner (scaled fitness); higher = more likely to interact).
Procedure: (§1)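 Split mouse DHFR complementation in pooled diploid yeast: human ORFeome clones carry one fragment and viral ORFs the other; barcoded lineages compete in 1 µg/mL methotrexate and fitness is read by barcode sequencing in up to three cultures.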
B1 was tested, and the yeast fitness gain was inactive: 0.197. B2 was tested, and the yeast fitness gain was inactive: 0.00145.

The binders below were run against SARS-CoV-2 M in the same assay as above.
Procedure: as §1
B1 was tested, and the yeast fitness gain was inactive: -0.0407. For B2, the yeast fitness gain was inactive: 0.0343.

Each binder was assayed against SARS-CoV-2 NSP1 in the same assay as above.
Procedure: as §1
In the case of B1, the yeast fitness gain is reported as inactive: 0.0166. For B2, the yeast fitness gain was inactive: 0.0548.

Each binder was assayed against SARS-CoV-2 NSP10 in the same assay as above.
Procedure: as §1
For B1, the yeast fitness gain was inactive: -0.0477. For B2, the yeast fitness gain was inactive: 0.0344.

The binders below were run against SARS-CoV-2 NSP12 in the same assay as above.
Procedure: as §1
With B1 the yeast fitness gain was inactive: 0.0711. With B2 the yeast fitness gain was inactive: 0.0474.

The binders below were run against SARS-CoV-2 NSP13 in the same assay as above.
Procedure: as §1
For B1, the yeast fitness gain was inactive: 0.0376. For B2, the yeast fitness gain was inactive: 0.0376.

What follows are binders tested against SARS-CoV-2 NSP16 in the same assay as above.
Procedure: as §1
With B1 the yeast fitness gain was inactive: -0.12. In the case of B2, the yeast fitness gain is reported as inactive: 0.0355.

These binders were tested against SARS-CoV-2 NSP2 in the same assay as above.
Procedure: as §1
In the case of B1, the yeast fitness gain is reported as inactive: -0.132. With B2 the yeast fitness gain was inactive: -0.119.

The binders below were run against SARS-CoV-2 NSP5 in the same assay as above.
Procedure: as §1
B1 was tested, and the yeast fitness gain was inactive: 0.015. With B2 the yeast fitness gain was inactive: 0.00803.

Each binder was assayed against SARS-CoV-2 NSP6 in the same assay as above.
Procedure: as §1
For B1, the yeast fitness gain was inactive: 0.0894. With B2 the yeast fitness gain was inactive: 0.0232.

These binders were tested against SARS-CoV-2 NSP7 in the same assay as above.
Procedure: as §1
With B1 the yeast fitness gain was inactive: 0.0819. With B2 the yeast fitness gain was inactive: 0.0279.

Each binder was assayed against SARS-CoV-2 NSP8 in the same assay as above.
Procedure: as §1
In the case of B1, the yeast fitness gain is reported as inactive: 0.0463. For B2, the yeast fitness gain was inactive: -0.00326.

What follows are binders tested against SARS-CoV-2 NSP9 in the same assay as above.
Procedure: as §1
In the case of B1, the yeast fitness gain is reported as inactive: 0.056. With B2 the yeast fitness gain was inactive: 0.0395.

The binders below were run against SARS-CoV-2 ORF10 in the same assay as above.
Procedure: as §1
In the case of B1, the yeast fitness gain is reported as inactive: -0.0872. For B2, the yeast fitness gain was inactive: 0.0191.

What follows are binders tested against SARS-CoV-2 ORF3A in the same assay as above.
Procedure: as §1
With B1 the yeast fitness gain was inactive: 0.0607. For B2, the yeast fitness gain was inactive: 0.00277.

The binders below were run against SARS-CoV-2 ORF3B in the same assay as above.
Procedure: as §1
For B1, the yeast fitness gain was inactive: -0.0404. For B2, the yeast fitness gain was inactive: -0.00969.

The binders below were run against SARS-CoV-2 ORF6 in the same assay as above.
Procedure: as §1
With B1 the yeast fitness gain was inactive: -0.0219. With B2 the yeast fitness gain was inactive: -0.0399.

The binders below were run against SARS-CoV-2 ORF7A in the same assay as above.
Procedure: as §1
B1 was tested, and the yeast fitness gain was inactive: -0.159. With B2 the yeast fitness gain was inactive: 0.0291.

The binders below were run against SARS-CoV-2 ORF7B in the same assay as above.
Procedure: as §1
For B1, the yeast fitness gain was inactive: 0.00134. In the case of B2, the yeast fitness gain is reported as inactive: 0.0107.

Each binder was assayed against SARS-CoV-2 ORF8 in the same assay as above.
Procedure: as §1
B1 was tested, and the yeast fitness gain was inactive: 0.0228. For B2, the yeast fitness gain was inactive: 0.00733.

Each binder was assayed against SARS-CoV-2 ORF9B in the same assay as above.
Procedure: as §1
B1 was tested, and the yeast fitness gain was inactive: -0.011. B2 was tested, and the yeast fitness gain was inactive: 0.0245.

What follows are binders tested against SARS-CoV-2 ORF9Bwu (the 73-codon ORF) in the same assay as above.
Procedure: as §1
With B1 the yeast fitness gain was inactive: 0.0235. For B2, the yeast fitness gain was inactive: 0.0244.

Each binder was assayed against SARS-CoV-2 S in the same assay as above.
Procedure: as §1
For B1, the yeast fitness gain was inactive: 0.0218. B2 was tested, and the yeast fitness gain was inactive: 0.0452.

Each binder was assayed against SARS-CoV-2 N in the same assay as above.
Procedure: as §1
With B2 the yeast fitness gain was inactive: -0.00572.

Each binder was assayed against SARS-CoV-2 NSP14 in the same assay as above.
Procedure: as §1
For B2, the yeast fitness gain was inactive: 0.0245.

What follows are binders tested against SARS-CoV-2 NSP15 in the same assay as above.
Procedure: as §1
For B2, the yeast fitness gain was inactive: -0.0155.

Each binder was assayed against SARS-CoV-2 NSP4 in the same assay as above.
Procedure: as §1
B2 was tested, and the yeast fitness gain was inactive: 0.149.
